According to PubChem BioAssay AID1508642 (National Center for Advancing Translational Sciences (NCATS), 2021):
Among all 43,000 compounds or so, about 200 (0.47%) were called active. Another 12% or so got no clear call; they are omitted. Calls come from the whole dose curve; as a rule, active = well fitted cell-killing curve with a large enough effect; inconclusive = small, poorly fitted or top-dose-only effect, or effect the other way; inactive = flat fitted curve, though single readings scatter. The list shows a part of the results.

Assay: Cell viability qHTS assay in S16 Pmp22-F2sN cells; note: nearly all actives have a fitted effect of over 65% in size
Conditions: S16 Pmp22-F2sN Schwann cells (luciferase reporters placed in the Pmp22 gene) viability, CellTiter-Glo, 24 h; series mostly up to 57.5 µM; activity change, negative = cytotoxicity: at the top concentration
Method in brief: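 S16 Schwann cells carrying the Pmp22-F2sN reporter, seeded in 1536-well format, were exposed to library compounds for 24 h at 37C. Viability was read as CellTiter-Glo luminescence after 15 min at room temperature.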
% is set by controls: 0 for no effect and ±100 for the full control effect.

SMILES | activity change, negative = cytotoxicity
CCC(O)c1cc2c(cc1NC(=O)c1cccc(Br)c1)OCCO2 (stereo not drawn) | inactive: 24.9%
CCCSc1ncc(Cl)c(C(=O)N(Cc2ccc(N(C)C)cc2)C2CCS(=O)(=O)C2)n1 (stereo not drawn) | inactive: -4.31%
COc1ccc(NC(=O)Cn2cnc3sc(C)c(S(=O)(=O)N4CCN(C)CC4)c3c2=O)cc1Cl | inactive: 0.491%
Cc1nc2ccccc2n1CCc1nc2c3ccccc3nc(SCC(=O)Nc3ccc(Br)cc3F)n2n1 | inactive: 13.1%
COc1ccc(-c2nc3ccccc3o2)cc1NC(=O)C(C)Oc1ccc(Cl)cc1Cl (stereo not drawn) | inactive: 0.31%
CC(C)C12CN3CC(C(C)C)(CN(C1)C3c1ccc(Cl)cc1)C2=O (stereo not drawn) | inactive: 18.5%
CN1CCN(c2oc(-c3ccc(COc4ccc(Cl)cc4)o3)nc2C#N)CC1 | inactive: 2.74%
N#Cc1nc(-c2ccc(COc3ccccc3)o2)oc1NCc1ccccc1 | inactive: 1.94%
Cc1ccc(CNC(=O)CSc2nc(=O)[nH]c3c2CCCC3)cc1 | inactive: 2.09%
COCCc1nn2c(=O)cc(COC(=O)COc3ccc(F)cc3)nc2s1 | inactive: -10.4%
CCCOC(=O)c1c(NC(=O)C2c3ccccc3Oc3ccccc32)sc2c1CCC(C)C2 (stereo not drawn) | inactive: -1.89%
Cc1ccc2oc(-c3ccc(C)c(NC(=O)c4ccc(C(C)(C)C)cc4)c3)nc2c1 | inactive: 3.97%
COc1cccc(CNC(=O)c2nn(-c3ccccc3Cl)nc2CO)c1 | inactive: -18.2%
Cc1ccccc1C(=O)NCc1nc2cccnc2n1Cc1ccccc1 | inactive: 11.3%
COc1ccccc1C(=O)n1nc(-c2ccco2)nc1NCc1ccc(Cl)cc1 | inactive: 5.14%
COc1ccc(N2CCN(C(=O)c3ccc4c(c3)N(Cc3ccc(F)cc3)C(=O)c3ccccc3S4=O)CC2)cc1 (stereo not drawn) | inactive: 15.1%
COc1ccc(S(=O)(=O)c2c(Nc3ccc(F)cc3)sc(C(=O)c3ccc4c(c3)OCO4)c2N)cc1 | inactive: 1.81%
CCN1CCN(C(c2ccccc2)c2sc3nc(-c4ccco4)nn3c2O)CC1 (stereo not drawn) | inactive: 0.873%
CCOc1ccccc1C(=O)Oc1c(Sc2ccccc2)c(C)nn1C(C)(C)C | inactive: -7.18%
O=C(c1cnc(N2CCCCC2)c2ccccc12)N1CCN(c2ccccc2F)CC1 | inactive: 1.53%
CCCSc1oc(-c2cccs2)nc1S(=O)(=O)c1ccc(Cl)cc1 | inactive: -0.172%
Cc1ccc2c(c1)c1c(c(=O)n(Cc3ccccc3)c(=O)n1Cc1cccc(C(F)(F)F)c1)n2C | inactive: 1.68%
Cc1ccc(CNc2nc3ccccc3c3nc(-c4cccc(C)c4)nn23)cc1 | inactive: -1.36%
COc1ccc(Cn2c(CNS(=O)(=O)c3ccc4c(c3)CCCC4)nc3cccnc32)cc1 | inactive: -7.09%
CCOc1ccc(C(=O)NCCc2sc3nc(-c4ccc(Cl)cc4)nn3c2C)cc1OCC | inactive: -1.39%

SMILES | activity change, negative = cytotoxicity
O=C(NCCc1ccc(Cl)cc1)c1ccc(Cn2c(=O)c3cccn3c3cccnc32)cc1 | inactive: -8.34%
c1csc(C2=NC(c3ccncc3)=Nc3ccccc3N2)c1 | inactive: -4.09%
O=C(CSC1=Nc2ccccc2N=C(c2ccc(F)cc2)C1)NCc1ccccc1 | inactive: 20%
CC(=O)N1CCc2cc(CNS(=O)(=O)c3ccc(Br)s3)ccc21 | inactive: -0.138%
Cc1cc2oc(=O)c(CC(=O)O)c(C)c2c2occ(-c3ccc(F)cc3)c12 | inactive: 4.67%
Cc1ccc(N2CC(NC(=O)c3ccc(S(=O)(=O)N4CCOCC4)cc3)CC2=O)cc1C (stereo not drawn) | inactive: 8.13%
Cc1cccc(CNC(=O)C2CCN(c3nnc(-n4c(C)ccc4C)s3)CC2)c1 | inactive: 0.226%
COc1ccc(CCNC(=O)CCCn2c(=O)c3ccccc3n(Cc3ccc(F)cc3Cl)c2=O)cc1OC | inactive: -1.56%
O=C(c1ccc2c(c1)OCCO2)N(Cc1cccnc1)c1nc2c(F)cccc2s1 | inactive: -8.05%
Cc1cccc(-c2noc(CN(C(=O)c3ccccc3Cl)C(C)C)n2)c1 | inactive: -9.06%
CCCn1c2ccccc2c2cnn(CC(=O)N3CCC(C(=O)OCC)CC3)c(=O)c21 | inactive: 11.9%
Cc1ccc(CNc2nc3ccccc3n3c(C)nnc23)cc1 | inactive: -2.47%
O=C(Nc1cccc(NC(=O)c2ccc(Br)o2)c1)c1ccccc1 | inactive: -4.11%
COc1cccc(C2c3c(oc4ccc(C)cc4c3=O)C(=O)N2CCCN2CCOCC2)c1OC (stereo not drawn) | inactive: -8.93%
Cc1cccc(-c2noc(-c3cccnc3NCc3ccco3)n2)c1 | inactive: 12.1%
Cc1ccccc1-n1cc(-c2ccccc2)nc1SCC(=O)Nc1ccc(F)cc1 | inactive: 6.5%
COc1ccc(-n2c(=O)c3c4c(sc3n(Cc3cc(C)ccc3C)c2=O)CN(C(C)=O)CC4)c(OC)c1 | inactive: 22.7%
Cc1ccc(Sc2c(C)nn(C(=O)COc3ccc(F)cc3)c2C)cc1 | inactive: -3.53%
O=C(NCCN1CCN(c2ccccc2)CC1)Nc1ccccc1Br | inactive: 1.19%
CC(=O)N1CCCc2cc(S(=O)(=O)N(C)CC(=O)Nc3ccc(C)cc3C)ccc21 | inactive: -2.33%
Cc1noc(Cn2c(=O)c3ccccc3n(CC(=O)Nc3cccc(Cl)c3C)c2=O)n1 | inactive: -8.85%
CC(C)c1ccc(OCC(=O)Nc2c(Cl)ccc3nsnc23)cc1 | inactive: -13.7%
N#Cc1nc(/C=C/c2ccc(F)cc2)oc1N1CCN(c2ccccc2)CC1 | inactive: 1.6%
COc1cccc(C2CC(=O)Nc3c2c(=O)nc2c(C)cccn32)c1 (stereo not drawn) | inactive: -7.77%
COc1cccc(CNC(=O)CSc2nc3ccccc3nc2Cc2ccc(C)cc2)c1OC | inactive: 10.8%

SMILES | activity change, negative = cytotoxicity
CCOC(=O)CNC(=O)c1cc2c(=O)n3cccc(C)c3nc2s1 | inactive: -0.116%
Cc1ccc(NC(=O)CCNS(=O)(=O)c2ccc3c(c2)CCN3C(=O)C2CC2)c(Cl)c1 | inactive: -8.27%
CCCn1c2ccccc2c2cnn(CC(=O)NCCc3ccc(OCC)c(OCC)c3)c(=O)c21 | inactive: 1.75%
CCCCNC(=O)CCn1c(=O)c2cccn2c2ccc(F)cc21 | inactive: 0.181%
CCOc1ccccc1NC(=O)CSc1ncc(S(=O)(=O)c2ccc(C(C)(C)C)cc2)c(=O)[nH]1 | inactive: -2.06%
O=c1c2cc3c(cc2n(Cc2cccc(Cl)c2)c(=O)n1Cc1nc(-c2ccccc2)no1)OCO3 | inactive: 3.21%
COc1ccc(NC(=O)CCNS(=O)(=O)c2cccc3nonc23)c(OC)c1 | inactive: 12.5%
COc1ccc(Nc2ncc(C(=O)Nc3cc(Cl)c(OC)cc3OC)c3ccccc23)cc1 | inactive: 10.8%
CN(C)c1ccc(C(CNS(=O)(=O)c2ccc(F)cc2)N2CCCC2)cc1 (stereo not drawn) | inactive: 5.54%
O=C(Nc1ncc(Cc2ccc(Cl)cc2)s1)c1ccc2c(c1)CC(c1ccccc1)OC2=O (stereo not drawn) | inactive: 8.62%
COc1cccc(-n2c(-c3ccco3)nc3c(cnn3-c3ccc(C)cc3)c2=O)c1 | inactive: -16.4%
CCOc1ccc(NS(=O)(=O)c2ccc3[nH]cc(C(=O)NC4CCCC4)c(=O)c3c2)cc1 | inactive: 0.327%
CCOc1ccc(C(=O)c2cn(Cc3ccc(OC)cc3)c3cc(OC)c(OC)cc3c2=O)cc1 | inactive: 4.96%
Cc1noc(Cn2c(=O)c3ccccc3n(CC(=O)Nc3ccc(Cl)cc3)c2=O)n1 | inactive: 1.16%
O=C(Nc1cc(Cl)ccc1Cl)C1(c2cccs2)CCOCC1 | inactive: 22.8%
CCOc1ccc(NC(=O)CSc2ncc3c(n2)-c2cc(Cl)ccc2N(C)S3(=O)=O)cc1 | inactive: 0.845%
CC1=C(C(=O)NCc2ccc(C)cc2)C2(CCCCC2)OC1=O | inactive: 0.0011%
Cc1ccc2cccc(NC(=O)C(C)Oc3ccc(C)c(C)c3)c2n1 (stereo not drawn) | inactive: -0.447%
Cc1ccc(C)c(Cn2c(SCC(=O)N(C)Cc3ccccc3)nc3ccccc32)c1 | inactive: -26.9%
CN(C(=O)CSc1nc2ccc(NC(=O)CCc3ccccc3)cc2s1)c1ccccc1 | inactive: -12.5%
Cc1ccc(-c2nnc(Nc3ccc(S(N)(=O)=O)cc3)c3ccccc23)cc1S(=O)(=O)N1CCOCC1 | inactive: -16.5%
O=C(CSc1nc2ccccc2nc1Cc1ccc(Cl)cc1)N1CCN(c2ccccc2F)CC1 | inactive: -4.29%
COc1ccc(C(=O)Nc2ccc3oc(-c4ccc(OC)cc4)nc3c2)cc1 | inactive: 6.2%
CCOC(=O)c1ccc(NC(=O)C2CC(=O)N(c3ccc(C(C)C)cc3)C2)cc1 (stereo not drawn) | inactive: 25.7%
CCCC(=O)Nc1cc(-c2nc3cccnc3s2)ccc1C | inactive: -7.96%

SMILES | activity change, negative = cytotoxicity
CCc1cccc(NC(c2nnc(-c3ccccc3)o2)c2ccc(F)cc2Cl)c1 (stereo not drawn) | inactive: 1.47%
COc1ccc2c(c1)Cc1sc(NC(=O)c3cccc(F)c3)nc1-2 | inactive: -7.62%
Cc1cccc2c(=O)cc(CSc3ccccc3NC(=O)c3cccc(Br)c3)[nH]c12 | inactive: -4.34%
COc1ccc(NC(=O)CSc2nc3nc(C)cc(C)n3n2)cc1OC | inactive: 1.66%
O=C(CSc1ncc(CO)n1Cc1ccc(F)cc1)NCc1ccco1 | inactive: 15.5%
COc1cc(O)ccc1-c1nc2cc(C)ccn2c1Nc1ccccc1C | inactive: -0.438%
Cc1ccc(N2CC(C(=O)NCc3nnnn3-c3ccc(C)c(C)c3)CC2=O)cc1C (stereo not drawn) | inactive: 1.16%
COc1cc(C(=O)NCC(c2ccc3c(c2)OCO3)N2CCN(C)CC2)cc(OC)c1OC (stereo not drawn) | inactive: -3.61%
COc1cccc2c1cc1c(=O)n(CC(=O)NCc3ccc(N(C)C)cc3)nc(C)n12 | inactive: -2.08%
COc1cccc(NC(=O)c2sc3nc(C)c(C(=O)Nc4ccc(C)cc4C)c(-c4ccc(C)o4)c3c2N)c1 | inactive: 4.32%
CCC1CCCCN1CCCNC(=O)c1c(C)oc2ncn(CC(C)C)c(=O)c12 (stereo not drawn) | inactive: 3.28%
O=c1n(Cc2ccc(Cl)cc2)nc2n1-c1ccccc1OC2 | inactive: 21.3%
CCOc1ccccc1NC(=O)NCc1noc2ccc(C)cc12 | inactive: 1.31%
Cc1ccc(C)c(CSc2cn(CCNC(=O)c3cccs3)c3ccccc23)c1 | inactive: -1.39%
CCc1ccc(NS(=O)(=O)c2ccc(NC(=O)N3CCCC3)cc2)cc1 | inactive: -0.503%
Cc1ccc(CSc2nc3cc(C(=O)NC4CCCC4)ccc3c(=O)n2Cc2ccccc2)cc1 | inactive: 10.5%
CC(CNC(=O)c1csc2c1CCCCC2)c1ccccc1 (stereo not drawn) | inactive: -12.3%
O=C(Nc1cccc(O)c1)c1cc(-c2ccccc2F)no1 | inactive: 5.62%
CCc1ccc(NC(=O)Cn2nnc(C(=O)Nc3ccc(F)cc3)c2N)cc1 | inactive: -0.959%
Cc1ccc(NC(=O)CCc2c(C)nc3ncnn3c2C)cc1Cl | inactive: 6.19%
Cc1ccccc1NC(=O)Cn1nnc(C(=O)NCc2cccs2)c1N | inactive: -1.48%
COc1cc(NC(=O)c2cc(S(=O)(=O)N3CCC(C)CC3)cn2C)cc(OC)c1OC | inactive: -7.18%
CCOC(=O)C1CCCN(C(=O)Cn2ncc3c4ccccc4n(C)c3c2=O)C1 (stereo not drawn) | inactive: 9.21%
